These are yes or no findings as the source states them, for the method shown. In cells and extracts the contact can be indirect. Some results given as binding are weak or reduced against the parent protein; the word gives no strength.
What was measured:
[1] = target: T1, endoplasmic reticulum oxidoreductin-1 (Ero-1) (human (endogenous in Hep3B)) (UniProt Q96HE7); assay: co-IP; Hep3B cell extracts, hypoxia 6 h; Ero-1 immunoprecipitated (by the text), immunoblot for HIF-1alpha, PDI and Ero-1
T1 sequence: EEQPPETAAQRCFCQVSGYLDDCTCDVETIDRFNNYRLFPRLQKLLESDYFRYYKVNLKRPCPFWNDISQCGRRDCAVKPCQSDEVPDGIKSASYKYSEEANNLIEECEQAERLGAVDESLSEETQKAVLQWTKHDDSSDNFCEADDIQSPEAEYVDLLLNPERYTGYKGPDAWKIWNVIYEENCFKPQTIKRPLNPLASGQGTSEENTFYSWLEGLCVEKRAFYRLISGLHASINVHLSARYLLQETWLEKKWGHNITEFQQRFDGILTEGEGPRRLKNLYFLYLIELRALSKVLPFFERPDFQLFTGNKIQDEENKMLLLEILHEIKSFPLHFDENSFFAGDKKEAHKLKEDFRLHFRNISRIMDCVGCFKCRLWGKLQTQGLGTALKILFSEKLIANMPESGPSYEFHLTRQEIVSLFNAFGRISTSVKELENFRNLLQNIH

Sequences of proteins named here, by UniProt entry; tags and fusion partners are left off. Residues count along the entry.
UniProt P07237, residues 18-508: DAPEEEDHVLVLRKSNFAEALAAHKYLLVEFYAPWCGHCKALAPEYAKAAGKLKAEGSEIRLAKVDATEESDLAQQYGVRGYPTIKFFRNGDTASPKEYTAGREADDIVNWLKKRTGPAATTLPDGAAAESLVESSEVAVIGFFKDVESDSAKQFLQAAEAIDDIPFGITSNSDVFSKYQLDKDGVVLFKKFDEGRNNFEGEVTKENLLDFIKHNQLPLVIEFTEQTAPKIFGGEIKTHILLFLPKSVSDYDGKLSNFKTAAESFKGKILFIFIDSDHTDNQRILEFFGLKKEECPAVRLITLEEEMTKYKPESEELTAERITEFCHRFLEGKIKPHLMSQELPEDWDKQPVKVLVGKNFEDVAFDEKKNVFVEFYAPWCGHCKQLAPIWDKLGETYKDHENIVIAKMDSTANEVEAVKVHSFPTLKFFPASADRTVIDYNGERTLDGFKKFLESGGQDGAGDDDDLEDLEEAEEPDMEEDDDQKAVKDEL

[2] = target: Hypoxia-inducible factor-1alpha (HIF-1alpha) (human (endogenous in Hep3B)) (UniProt Q16665); assay: co-IP; cytosol fraction of Hep3B cells, hypoxia 4 h or 6 h; anti-HIF-1alpha antibody; immunoblot for PDI
[3] = target: Hypoxia-inducible factor-1alpha (HIF-1alpha) (human (endogenous in Hep3B)) (UniProt Q16665); assay: co-IP; Hep3B cell extracts (hypoxia 6 h; or hypoxia 8 h with NH4Cl, with or without overexpression of PDI WT or PDI C53, 397S); anti-HIF-1alpha antibody, Protein A-Sepharose, 4°C; 50 mM Tris-HCl pH 7.5, 150 mM NaCl, 0.5% Nonidet P-40; immunoblot
[4] = target: HIF-1alpha (1–245 aa), Myc-tagged (human) (UniProt Q16665); assay: co-IP; extracts of Hep3B cells overexpressing HIF-1alpha 1–245 aa with or without PDI, 8 h with NH4Cl; anti-Myc antibody; immunoblot with anti-Myc or anti-HSC70 antibody

Substance | binding [1] | binding [2] | binding [3] | binding [4]
Hypoxia-inducible factor-1alpha (HIF-1alpha) (from UniProt Q16665-1 1-826) | no binding |  |  | 
Protein disulfide isomerase (PDI) (from UniProt P07237 18-508) (enzyme) | binds | binds | binds | 
heat shock cognate 70 kDa protein (HSC70) (from UniProt P11142 1-646) |  |  | binds | binds

Source: article PMC7861413
